Our source for the inhibition values is ChEMBL document CHEMBL1961873, “Compounds: GSK PKIS; Assays: Nanosyn kinase panel” (2012).

Only a part is listed here, and it is no random draw.

For orientation: inhibition means the drop in the measured response relative to a control, in per cent.

For one test, the target named is T1, Inhibitor of nuclear factor kappa-B kinase subunit beta (Homo sapiens) (UniProt O14920).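 Note: reported as mean inhibition, from the GSK PKIS screening set.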
T1 sequence (whole entry): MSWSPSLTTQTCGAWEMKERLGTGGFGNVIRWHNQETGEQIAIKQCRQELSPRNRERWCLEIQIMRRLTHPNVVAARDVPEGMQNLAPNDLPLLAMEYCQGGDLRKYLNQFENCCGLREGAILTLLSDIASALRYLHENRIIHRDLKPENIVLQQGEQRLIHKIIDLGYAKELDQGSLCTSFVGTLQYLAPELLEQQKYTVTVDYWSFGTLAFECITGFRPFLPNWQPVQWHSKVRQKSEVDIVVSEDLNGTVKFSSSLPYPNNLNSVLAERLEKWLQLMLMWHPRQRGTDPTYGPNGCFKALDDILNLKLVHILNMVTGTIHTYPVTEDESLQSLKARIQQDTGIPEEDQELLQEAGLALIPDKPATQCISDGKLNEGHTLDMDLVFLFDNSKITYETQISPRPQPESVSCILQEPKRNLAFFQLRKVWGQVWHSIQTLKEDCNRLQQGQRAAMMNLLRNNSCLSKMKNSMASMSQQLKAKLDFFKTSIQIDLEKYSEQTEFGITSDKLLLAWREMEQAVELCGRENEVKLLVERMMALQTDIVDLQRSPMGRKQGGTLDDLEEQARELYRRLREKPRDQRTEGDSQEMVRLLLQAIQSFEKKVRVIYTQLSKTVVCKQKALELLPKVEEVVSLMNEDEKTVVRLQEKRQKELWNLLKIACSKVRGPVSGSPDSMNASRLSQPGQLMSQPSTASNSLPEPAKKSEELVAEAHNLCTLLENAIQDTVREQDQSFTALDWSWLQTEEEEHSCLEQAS
Particulars: at 1 µM.
Take `COc1ccccc1Oc1nccc(-c2c(-c3ccc(F)cc3)ncn2C2CCNCC2)n1`: the inhibition stood at 6.59%.
Still for that read-out and setting: the value for `Fc1ccc(Oc2nccc(-c3c(-c4ccc(F)cc4)ncn3C3CCNCC3)n2)cc1` was 6.38%; that for `Fc1ccc(-c2ncn(C3CCNCC3)c2-c2ccnc(Oc3ccc(Cl)cc3)n2)cc1` was 0.18%.
On the same count and under the same terms, the value for `O=C1NC(=O)C(c2cccc([N+](=O)[O-])c2)=C1Nc1cc(Cl)c(O)c(Cl)c1` was 4.99%.
On the same count and under the same terms, next, `O=C(O)c1ccc(Oc2nccc(-c3c(-c4ccc(F)cc4)ncn3C3CCNCC3)n2)cc1`: 6.85%; `CC(C)(C)c1ccc(Oc2nccc(-c3c(-c4ccc(F)cc4)ncn3C3CCNCC3)n2)cc1`: 6.81%.
`O=C1NC(=O)C(c2ccccc2Cl)=C1Nc1cc(Cl)c(O)c(Cl)c1`: the inhibition is 3.42%.
Regarding `COc1ccccc1C1=C(Nc2ccccc2)C(=O)NC1=O`, the inhibition was found to be 4.05%.
Still for that read-out and setting: next, `Cc1cccc(Oc2nccc(-c3c(-c4ccc(F)cc4)ncn3C3CCNCC3)n2)c1C`: 5.76%.
On the same count and under the same terms, the value for `NC(=O)CCc1ccccc1Oc1nccc(-c2c(-c3ccc(F)cc3)ncn2C2CCNCC2)n1` was -0.27%; that for `O=C1NC(=O)C(c2ccccc2)=C1Nc1ccccc1` was 7.73%.
The same measure, in the same setting: the value for `Fc1ccc(-c2ncn(C3CCNCC3)c2-c2ccnc(Oc3cccc(C(F)(F)F)c3)n2)cc1` was 8.48%; that for `CS(=O)(=O)c1ccc(Oc2nccc(-c3c(-c4ccc(F)cc4)ncn3C3CCNCC3)n2)cc1` was 6.56%.
In the case of `Fc1ccc(-c2ncn(C3CCNCC3)c2-c2ccnc(Oc3cccc(F)c3)n2)cc1`, the inhibition turned out to be 7.12%.

A further test has as its target T2, Inhibitor of nuclear factor kappa-B kinase subunit epsilon (Homo sapiens) (UniProt Q14164).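 Note: mean inhibition of IKKε reported, from the GSK PKIS dataset.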
T2 sequence (whole entry): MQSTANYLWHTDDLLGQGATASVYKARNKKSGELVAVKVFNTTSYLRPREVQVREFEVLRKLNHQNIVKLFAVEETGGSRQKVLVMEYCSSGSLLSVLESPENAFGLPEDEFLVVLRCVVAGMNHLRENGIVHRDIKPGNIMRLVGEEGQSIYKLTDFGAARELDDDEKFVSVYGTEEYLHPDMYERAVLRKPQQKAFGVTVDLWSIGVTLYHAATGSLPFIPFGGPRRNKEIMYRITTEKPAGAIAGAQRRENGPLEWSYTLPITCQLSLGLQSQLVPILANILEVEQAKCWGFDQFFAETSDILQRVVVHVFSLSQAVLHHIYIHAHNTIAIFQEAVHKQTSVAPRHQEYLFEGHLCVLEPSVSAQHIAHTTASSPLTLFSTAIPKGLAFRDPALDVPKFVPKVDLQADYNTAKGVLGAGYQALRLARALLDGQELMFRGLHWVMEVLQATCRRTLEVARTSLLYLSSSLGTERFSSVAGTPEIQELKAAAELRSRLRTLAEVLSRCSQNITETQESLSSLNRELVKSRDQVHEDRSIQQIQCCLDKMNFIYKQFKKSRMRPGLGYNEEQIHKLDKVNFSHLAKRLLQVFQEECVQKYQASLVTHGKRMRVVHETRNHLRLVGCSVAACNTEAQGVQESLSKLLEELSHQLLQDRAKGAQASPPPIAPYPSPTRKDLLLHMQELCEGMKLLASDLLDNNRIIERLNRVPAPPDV
Particulars: at 0.1 µM.
In the case of `Fc1ccc(Oc2nccc(-c3c(-c4ccc(F)cc4)ncn3C3CCNCC3)n2)cc1`, the inhibition was 6.92%.
On the same count and under the same terms, next, `Fc1ccc(-c2ncn(C3CCNCC3)c2-c2ccnc(Oc3ccc(Cl)cc3)n2)cc1`: 3.89%; `O=C1NC(=O)C(c2cccc([N+](=O)[O-])c2)=C1Nc1cc(Cl)c(O)c(Cl)c1`: 7.81%; `O=C(O)c1ccc(Oc2nccc(-c3c(-c4ccc(F)cc4)ncn3C3CCNCC3)n2)cc1`: 7.26%.
As to `CC(C)(C)c1ccc(Oc2nccc(-c3c(-c4ccc(F)cc4)ncn3C3CCNCC3)n2)cc1`, the inhibition came out at 9.48%.
Still for that read-out and setting: the value for `O=C1NC(=O)C(c2ccccc2Cl)=C1Nc1cc(Cl)c(O)c(Cl)c1` was 8.42%; that for `COc1ccccc1C1=C(Nc2ccccc2)C(=O)NC1=O` was 4.87%; that for `Cc1cccc(Oc2nccc(-c3c(-c4ccc(F)cc4)ncn3C3CCNCC3)n2)c1C` was 6.04%.
Same read-out and setting: the value for `NC(=O)CCc1ccccc1Oc1nccc(-c2c(-c3ccc(F)cc3)ncn2C2CCNCC2)n1` was -0.48%; that for `O=C1NC(=O)C(c2ccccc2)=C1Nc1ccccc1` was 7.92%.
For `Fc1ccc(-c2ncn(C3CCNCC3)c2-c2ccnc(Oc3cccc(C(F)(F)F)c3)n2)cc1`, the inhibition is 9.02%.
Same read-out and setting: the value for `CS(=O)(=O)c1ccc(Oc2nccc(-c3c(-c4ccc(F)cc4)ncn3C3CCNCC3)n2)cc1` was 5.78%; that for `Fc1ccc(-c2ncn(C3CCNCC3)c2-c2ccnc(Oc3cccc(F)c3)n2)cc1` was 6.5%.
